# Laboratory results taken from article PMC6919601, “Identification of Plasmodium dipeptidyl aminopeptidase allosteric inhibitors by high throughput screening” (PLoS ONE, 2019).
# Hit rate of the full screen: of about 110,000 compounds, about 230 (0.21%) showed an effect of 50% or more. The list shows a part of the results.
# Target: DPAP1 (Plasmodium falciparum, UniProt Q8IIJ9)
# Assay: primary screen, percent inhibition; read by cleavage of a fluorogenic dipeptide substrate; higher = more effect of the substance
# Parameters: species or system P. falciparum D10 trophozoite lysates; single well
# 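Further: 30 min substrate incubation versus DMSO and 10 µM JCP410 controls.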
# DPAP1, sequence (Q8IIJ9 whole entry, looked up): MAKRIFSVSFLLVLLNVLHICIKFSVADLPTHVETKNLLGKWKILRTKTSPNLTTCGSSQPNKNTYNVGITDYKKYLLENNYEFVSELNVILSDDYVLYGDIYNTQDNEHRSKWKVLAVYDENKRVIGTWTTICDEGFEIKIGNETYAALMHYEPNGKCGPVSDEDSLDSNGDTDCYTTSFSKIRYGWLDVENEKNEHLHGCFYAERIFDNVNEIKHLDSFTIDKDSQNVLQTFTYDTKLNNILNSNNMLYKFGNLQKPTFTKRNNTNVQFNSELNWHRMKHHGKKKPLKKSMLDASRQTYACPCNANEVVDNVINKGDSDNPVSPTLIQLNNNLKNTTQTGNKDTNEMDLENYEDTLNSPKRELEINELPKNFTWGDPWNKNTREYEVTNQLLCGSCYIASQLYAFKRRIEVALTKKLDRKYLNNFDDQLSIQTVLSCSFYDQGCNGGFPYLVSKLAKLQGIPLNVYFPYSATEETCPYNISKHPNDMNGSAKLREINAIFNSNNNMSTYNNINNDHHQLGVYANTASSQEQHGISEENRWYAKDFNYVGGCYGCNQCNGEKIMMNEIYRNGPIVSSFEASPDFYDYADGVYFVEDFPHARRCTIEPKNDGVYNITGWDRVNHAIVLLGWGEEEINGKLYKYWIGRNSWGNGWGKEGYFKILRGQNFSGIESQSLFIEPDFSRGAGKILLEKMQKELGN
row,Compound,% Inhibition @ 10 uM [%]
1,Clc1cccc2c(NCc3ccc4c(c3)OCO4)cnnc12,3.43
2,CCOC(=O)c1sc(NC(=O)COc2ccccc2OC)nc1C,6.42
3,O=C(NCC1CCCO1)c1ccc(Cl)cc1Cl (centres unmarked),-2.54
4,O=C(O)CSc1nc2c(cnn2-c2ccccc2)c(=O)n1-c1ccc(Br)cc1,5.94
5,Cn1c(SCc2ccc(F)cc2)nc2ccc(C(=O)NCCc3ccc(S(N)(=O)=O)cc3)cc21,-1.38
6,Cc1ccc(CNC(=O)c2ccc(Cn3nc(C)c(Cl)c3C)o2)cc1,-3.13
7,CCOc1ccc(C(=O)Nc2cccc(C(=O)O)c2)cc1Cl,5.12
8,CC(C)c1ccc(C2C=C(c3cccnc3)Nc3ncnn32)cc1 (centres unmarked),3.26
9,COc1ccc(C2CC(=O)n3nc(C45CC6CC(CC(C6)C4)C5)nc3S2)cc1OC (centres unmarked),6.76
10,Nc1n[nH]c(SCc2cc(=O)n3nc(C4CCCCC4)sc3n2)n1,-2.28
11,COc1ccccc1/C=[N+]1\NC(=O)C(NC(=O)c2cccc(C)c2)C1c1ccc(Cl)cc1 (centres unmarked),0.413
12,COCCNC(=O)Cn1ccc2cc(S(=O)(=O)N3CCCCC3)ccc21,3.97
13,COCCNC(=O)c1ccc(-n2c(C)cc3c2CCCC3)cc1,-6.21
14,NS(=O)(=O)c1ccc(NC(=O)COc2ccccc2Cl)cc1,-6.16
15,CCc1ccc(CNc2ccc(C(=O)O)cc2)cc1,-5.54
16,CCN1C(=O)NC(=O)/C(=C\c2cn(CC(=O)NCCOC)c3ccccc23)C1=O,3.79
17,O=C(NCc1cccnc1)c1ccc(COc2ccccc2Cl)o1,-17.2
18,CC(C)(CO)NC(=O)c1cc(-c2ccc(F)cc2)no1,4.85
19,O=C(COc1ccc(S(=O)(=O)NC2CCCCC2)cc1)NCc1cccnc1,5.99
20,Cc1ccc(C(=O)n2cnc3ccccc32)cc1C,21.9
21,CC1=C(c2ccc(C)c(C)c2)S(=O)(=O)N=C1N1CCC(C(=O)NCCCc2ccccc2)CC1,9.17
22,O=C(Nc1ccc(Cl)cn1)c1ccc2c(c1)OCCO2,4.07
23,Cc1cc(=O)n2nc(NC(C)C(=O)NCc3ccc(OC(C)C)cc3)sc2n1 (centres unmarked),-2
24,CCN(CC)CCCNC(=O)CSc1nc(-c2ccc(F)cc2)cc(C(F)(F)F)n1,-0.958
25,COc1cccc(C(=O)Nc2sc3c(c2C(N)=O)CCC(C)C3)c1 (centres unmarked),-7.08

row,Compound,% Inhibition @ 10 uM [%]
1,Cc1ccc(CCNC(=O)CCS(=O)(=O)Cc2ccccc2Cl)cc1,-0.0542
2,O=C(c1ccccc1Br)N1CCc2ccccc2C1,0.273
3,N#CC1=C(N)Oc2c(c(=O)oc3ccccc23)C1c1ccc(F)c(Br)c1 (centres unmarked),3.03
4,CCOC(=O)c1[nH]c(C)c(CNCCc2ccc(OC)c(OC)c2)c1C,-0.834
5,O=C(NCC1CCCO1)c1ccc(COc2ccc(Br)cc2)cc1 (centres unmarked),2.09
6,Cc1ccc(C(=O)C2=C(O)C(=O)N(c3nnc(C)s3)C2c2cccc(Oc3ccccc3)c2)cc1 (centres unmarked),0.487
7,CC1(C)[C@H]2CC=C(CN3CCCC(CO)C3)[C@@H]1C2 (some centres unmarked),4.55
8,Cc1ccccc1C(=O)Nc1nc2ccccc2s1,5.07
9,Cc1ccc2nc(NC(=O)C(Cc3ccccc3)n3cccc3)sc2c1 (centres unmarked),-4.21
10,O=C1CCCC(=O)C1=CNc1cccc2ccccc12,-4.43
11,COC(=O)c1c(C)oc2ccc(OC/C=C/c3ccccc3)cc12,1.37
12,C=CCN1C(=S)NC2c3cc(Br)ccc3OC1(C)C2C (centres unmarked),-4.23
13,CCOC(=O)CCCNC(=O)CCCNC(=O)C(c1ccccc1)c1ccccc1,3.18
14,O=C(c1cn(-c2ccccc2)nc1-c1ccccc1)N1CCCCC1,-4.06
15,Cc1ccc(C2C=C(c3ccccc3)Nc3nc(N4C(=O)c5ccccc5C4=O)nn32)cc1 (centres unmarked),-4.77
16,Cc1ccccc1NC(=O)CN1C(=O)S/C(=C/c2ccc(O)cc2)C1=O,15
17,Cc1nonc1N(Cc1ccc(Cl)cc1Cl)S(=O)(=O)c1ccccc1,-7.01
18,COc1ccc(-c2noc(CC(=O)N(C)CCC#N)n2)cc1,7.33
19,CC1=C(C(=O)Nc2ccc(Br)cn2)C(c2cnn(C)c2C)C2=C(O)CCCC2=N1 (centres unmarked),0.76
20,CCOC(=O)C1(C)C=C(Nc2ccc(Cl)cc2)C(=O)N1c1ccc(Cl)cc1 (centres unmarked),-4.93
21,O=C1C2C3C=CC(C3)C2C(=O)N1CCc1ccccc1 (centres unmarked),6.21
22,CCCOc1c(Cl)cc(/C=C2/NC(=S)NC2=O)cc1OC,1.4
23,Cc1nnc2c(NCc3ccc(C(=O)O)cc3)nc3ccccc3n12,3.17
24,Fc1cc(Br)ccc1-n1ncnc1-c1ccc(Cl)cc1,-3.74
25,O=c1oc2ccccc2c(N2CCN(c3ccccn3)CC2)c1CN1CCCC1,-1.68

row,Compound,% Inhibition @ 10 uM [%]
1,CCOC(=O)N1CCN(S(=O)(=O)c2ccc(S(N)(=O)=O)cc2)CC1,-5
2,COc1ccc(-c2nc(-c3cccnc3)no2)cc1,3.32
3,Cc1ccc(NC(=O)C2c3ccccc3-c3ccccc32)cc1Br,6.4
4,Cc1ccc2c(c1)C1CN(C)CCC1N2S(C)(=O)=O (centres unmarked),0.605
5,Oc1cc(-c2ccccc2)c2c(n1)CCCC2,6.13
6,COc1ccc(N(CC(=O)Nc2cccc3ccccc23)S(=O)(=O)c2ccccc2)c(OC)c1,3.69
7,Cc1cccc(NC(=O)C(CCS(C)(=O)=O)N2Cc3ccccc3C2=O)n1 (centres unmarked),5.32
8,Cc1nc2cc(-c3ccccc3)nn2c(C)c1CC(=O)NCc1ccc2c(c1)OCO2,0.953
9,O=C(CN1C(=O)S/C(=C\c2ccc3c(c2)OCO3)C1=O)c1ccc(Cl)cc1,-7.25
10,CC(C)(C)NC(=O)C1CCCN1S(=O)(=O)c1ccc(F)cc1 (centres unmarked),3.77
11,O=C(O)c1ccc(CN2CCN(c3ccccc3)CC2)cc1,-4.35
12,CCc1nnc(NS(=O)(=O)c2ccc(Cl)cc2)s1,-4.43
13,CCCNC(=O)CC(c1cc(OC)c(OC)c(OC)c1)N1Cc2ccccc2C1=O (centres unmarked),7.08
14,CSc1ccc(C2C(C#N)=C(N)N(c3nc[nH]n3)C3=C2C(=O)CC(C)(C)C3)cc1 (centres unmarked),-3.63
15,Cc1cccc(Cn2c(NCc3ccccc3)nc3c2c(=O)n(C)c(=O)n3C)c1,10.8
16,Cl/C(=C\c1ccccc1)CN1CCN(c2cccc(Cl)c2)CC1,-0.603
17,O=C(Nc1cc([N+](=O)[O-])ccc1Cl)c1cccc(C(=O)Nc2cc([N+](=O)[O-])ccc2Cl)c1,-7.02
18,O=C1c2cccc3c(NC(CO)(CO)CO)ccc(c23)C(=O)N1c1cccc(Cl)c1,-2.63
19,CC(C)C[C@H](NC(=O)c1ccc(NC(=O)NCc2ccncc2)cc1)C(=O)NCC#N,-2.35
20,COc1ccc(C2Oc3ccccc3C3CC(c4ccc(C)o4)=NN32)cc1OC (centres unmarked),-6.71
21,Cc1sc(NC(=O)c2ccc(Cl)cc2)c(C(=O)O)c1C,-3.58
22,COc1cccc(-c2cn3c(n2)sc2cc(C(=O)NCCCN4CCOCC4)ccc23)c1,5.11
23,Cc1onc(-c2ccccc2)c1C(=O)NCCCN(C)C,-5.3
24,O=C(NC1(C(F)(F)F)C(=O)Nc2c1c(=O)[nH]c(=O)n2CCc1ccccc1)C1CCCCC1 (centres unmarked),-1.18
25,O=C1CC(N2CCN(Cc3ccc4c(c3)OCO4)CC2)C(=O)N1c1ccc(Br)cc1 (centres unmarked),-1.65

row,Compound,% Inhibition @ 10 uM [%]
1,O=C1c2ccncc2C(=O)N1c1ccc(Cl)cc1,-3.57
2,Cc1cccc(C)c1OCCCn1ccnc1,1.87
3,O=C(N[C@H](/C=C/S(=O)(=O)c1ccccc1)CCc1ccccc1)[C@H](Cc1ccccc1)NC(=O)N1CCC(N2CCOCC2)CC1,-4.72
4,CCOc1cc(C2C(C#N)=C(N)Oc3[nH]nc(-c4cccs4)c32)ccc1OC (centres unmarked),0.658
5,C=CCNC(=O)/C=C/c1ccc(C(C)C)cc1,-6.06
6,O=C(c1cc2ccccc2oc1=O)N(Cc1cccc(F)c1)C1CCS(=O)(=O)C1 (centres unmarked),-6.85
7,CC(C)C[C@H](NC(=O)c1ccc(NC(=O)OC[C@H]2CCCN2C)cc1)C(=O)NCC#N,16
8,CCCCSc1nc(N)c2c3c(sc2n1)CCCC3,-2.2
9,CCc1c(O)nc(SCC(=O)N(CC)CC)n(C2CCCCC2)c1=O,-0.292
10,O=C(/C=C/c1ccc2c(c1)OCO2)Nc1cccc(C(F)(F)F)c1,4.54
11,COc1ccc(-c2nc3ccccn3c2NC(=O)C(C)C)cc1,2.17
12,CCc1ccc(S(=O)(=O)c2nnn3c2nc(NCc2ccccc2)c2sccc23)cc1,-5.88
13,Cc1ccc(C(=O)Nc2ccc(Oc3ccc(C(=O)O)c(C(=O)O)c3)cc2)cc1C,-2.05
14,CCC(C)(C)C1CCC2(CC1)NC(CO)(CO)CO2 (centres unmarked),-1.1
15,Cc1cc(NC(=O)c2ccc(N3C(=O)C4C5C=CC(C5)C4C3=O)cc2)no1 (centres unmarked),13.9
16,CCO/C(O)=C1/C(C)=Nc2nc(C)nn2C1c1ccc(C)cc1 (centres unmarked),-4.66
17,Cc1ccc2c(C(=O)CNc3nncs3)c(C)[nH]c2c1,0.146
18,CC(=O)OCC12COC(c3ccccc3)C(C(C)=CC1C)C2C (centres unmarked),0.565
19,Cc1cc(C)c2c(cnn2CC(=O)N2CCCCC2)c1,-4.71
20,N=C(NOS(=O)(=O)c1ccc(Cl)cc1)c1ccccn1,1.63
21,CCCOc1ccc(C(=O)C2=C(O)C(=O)N(CCCN3CCOCC3)C2c2ccc(F)cc2)cc1C (centres unmarked),-3.75
22,O=C1N=C(N2CCCCC2)CN1c1ccccc1,-4.35
23,Cc1nn2c(O)cc(-c3ccccc3)nc2c1-c1ccccc1,-4.78
